Test results: the antibiotic and cytotoxicity screens of Wong et al. (2023)
Some of the results follow.

What follows are compounds tested on S. aureus RN4220 (assay: growth inhibition call (relative growth <= 0.2)). Details: 50 µM.

Row | SMILES | growth inhibition call
1 | COc1cc2c(cc1OC)C1CC(=O)C(CC(C)C)CN1CC2 (centres undefined) | inactive
2 | N=C1NC(=O)N2CC12 (centres undefined) | inactive
3 | COc1cc([C@@H](O)CN)ccc1O | inactive
4 | O=[N+]([O-])c1cc(O)c(O)c([N+](=O)[O-])c1 | inactive
5 | CO[C@H]1[C@@H](O)[C@@H](C)O[C@H](O[C@H]2CC[C@@]3(C)[C@H]4CC[C@@]5(C)[C@@H](C6=CC(=O)OC6)CC[C@]5(O)[C@@H]4CC[C@]3(O)C2)[C@@H]1O | inactive
6 | S=C1NCCN1 | inactive
7 | CCC(COC(=O)c1cc(OC)c(OC)c(OC)c1)(c1ccccc1)N(C)C.O=C(O)C=CC(=O)O (centres undefined) | inactive
8 | C[C@@H]1CN([C@H](C)CO)C(=O)CCCn2cc(nn2)CO[C@@H]1CN(C)C(=O)Oc1cccc2ccccc12 | inactive
9 | CC(C)[C@@]1(NC(=O)[C@H]2C[C@@H]3c4cccc5[nH]cc(c45)C[C@H]3N(C)C2)O[C@@]2(O)[C@H]3CCCN3C(=O)[C@@H](Cc3ccccc3)N2C1=O | inactive
10 | COc1ccn(C)c(=O)c1C#N | inactive
11 | CC(C)[C@H](N)C(=O)N1CCC[C@H]1B(O)O | inactive
12 | COc1cc(C2c3cc4c(cc3C(O)C3COC(=O)C23)OCO4)cc(OC)c1OC (centres undefined) | inactive
13 | COC(=O)C1=CCCN(C)C1 | inactive
14 | Cn1cnc(CCN)c1 | inactive
15 | N[C@H]1Cc2ccccc2[C@@H]1O | inactive
16 | CC1(C)C(O)CC(=O)C2(C)C1CC(=O)C1(C)C2CCC2(C)C(c3ccoc3)OC(=O)C3OC321 (centres undefined) | inactive
17 | COCCCNC(=O)[C@@]1(Cc2ccccc2N=[N+]=[N-])N=C(c2ccc(OCCCO)cc2)O[C@H]1c1ccccc1N=[N+]=[N-] | inactive
18 | O=C(c1ccno1)N1C[C@@H]2CCN[C@@H]2C1 | inactive
19 | COc1ccc2cc(CCN)c(=O)[nH]c2c1 | inactive
20 | CC1=C(O)C(=O)C=C2C1=CC=C1C2(C)CCC2(C)C3CC(C)(C(=O)O)CCC3(C)CCC12C (centres undefined) | inactive

Row | SMILES | growth inhibition call
21 | CCN1C[C@]2(COC)CC[C@@H](OC)[C@@]34[C@@H]2[C@@H](OC)[C@@H]([C@@H]13)[C@]1(OC(C)=O)C[C@@H](OC)[C@@]2(O)C[C@H]4[C@@H]1[C@H]2OC(=O)c1ccc(OC)cc1 | inactive
22 | C1COC2(CN1)CNC2 | inactive
23 | c1csc(N2CCNCC2)n1 | inactive
24 | FCCN1C[C@H]2CCN[C@H]2C1 | inactive
25 | C[C@H]1CN([C@@H](C)CO)C(=O)CCCn2nncc2CO[C@H]1CN(C)C(=O)Oc1ccc2ccccc2c1 | inactive
26 | C=C(C)c1cc2cc(C(C)=O)c(O)cc2o1 | inactive
27 | C[C@H]1CN([C@@H](C)CO)C(=O)CCCn2cc(nn2)CO[C@@H]1CN(C)C(=O)Oc1cccc2ccccc12 | inactive
28 | O=C(CN1CCOCC1)c1ccc(O)cc1O | inactive
29 | O=C1CCCN1CC#CCN1CCCC1 | inactive
30 | Cc1cnc[nH]1 | inactive
31 | CC(C)=CC1C(C(=O)OCc2cccc(Oc3ccccc3)c2)C1(C)C (centres undefined) | inactive
32 | Oc1ccccc1N1CCNCC1 | inactive
33 | C1CCC(NC2CCCC2)CC1 | inactive
34 | NCCc1ccc(S(=O)(=O)F)cc1 | inactive
35 | CCC[C@@H](CN)c1ccc(F)cc1 | inactive
36 | Cc1ccc(OC(=O)N(C)C[C@H]2OCc3ccccc3-c3c(n(C)c4ccccc34)C(=O)N([C@@H](C)CO)C[C@H]2C)cc1 | inactive
37 | Cc1nccc2c1[nH]c1cc(O)ccc12 | inactive
38 | Cc1nnc([C@H]2CCCNC2)o1 | inactive
39 | O.O=c1ccc2cc(OC3OC(CO)C(O)C(O)C3O)c(O)cc2o1 (centres undefined) | inactive
